The list shows a part of the results.
Assays:
Experiment in all cases: glycan array binding signal (z-score within array); higher = stronger binding
Details in all cases: glycan notation: IUPAC condensed, linker removed
[1] = molecular target: GlcNAc(b1-3)Gal(b1-4)GlcNAc(b1-3)Gal(b1-4)GlcNAc(b1-2)Man(a1-3)[GlcNAc(b1-3)Gal(b1-4)GlcNAc(b1-3)Gal(b1-4)GlcNAc(b1-2)Man(a1-6)]Man(b1-4)GlcNAc(b1-4)GlcNAc
How it was run: (§1)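 Columns mapping to the same glycan were averaged after glycan names were converted to IUPAC-condensed notation. The data come from 3228 arrays in the Consortium for Functional Glycomics database, limited to those with an available protein sequence. Binding is reported as a within-array Z-score averaged across arrays of one protein sequence and across linkers.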

[2] = molecular target: GlcNAc(b1-3)Gal(b1-4)GlcNAc(b1-3)Gal(b1-4)GlcNAc(b1-2)Man(a1-3)[GlcNAc(b1-3)Gal(b1-4)GlcNAc(b1-3)Gal(b1-4)GlcNAc(b1-2)Man(a1-6)]Man(b1-4)GlcNAc(b1-4)[Fuc(a1-6)]GlcNAc
How it was run: as §1

[3] = molecular target: GlcNAc(b1-3)Gal(b1-4)GlcNAc(b1-3)Gal(b1-4)GlcNAc(b1-2)[GlcNAc(b1-3)Gal(b1-4)GlcNAc(b1-3)Gal(b1-4)GlcNAc(b1-6)]Man(a1-6)[GlcNAc(b1-3)Gal(b1-4)GlcNAc(b1-3)Gal(b1-4)GlcNAc(b1-2)Man(a1-3)]Man(b1-4)GlcNAc(b1-4)[Fuc(a1-6)]GlcNAc
How it was run: as §1

[4] = molecular target: GlcNAc(b1-3)Gal(b1-4)GlcNAc(b1-3)Gal(b1-4)GlcNAc(b1-3)Gal(b1-4)GlcNAc(b1-2)Man(a1-3)[GlcNAc(b1-3)Gal(b1-4)GlcNAc(b1-3)Gal(b1-4)GlcNAc(b1-3)Gal(b1-4)GlcNAc(b1-2)Man(a1-6)]Man(b1-4)GlcNAc(b1-4)GlcNAc
How it was run: as §1

[5] = molecular target: GlcNAc(b1-3)Gal(b1-4)GlcNAc(b1-3)Gal(b1-4)GlcNAc(b1-3)Gal(b1-4)GlcNAc(b1-2)Man(a1-3)[GlcNAc(b1-3)Gal(b1-4)GlcNAc(b1-3)Gal(b1-4)GlcNAc(b1-3)Gal(b1-4)GlcNAc(b1-2)Man(a1-6)]Man(b1-4)GlcNAc(b1-4)[Fuc(a1-6)]GlcNAc
How it was run: as §1

[6] = molecular target: GlcNAc(b1-3)Gal(b1-4)GlcNAc(b1-3)Gal(b1-4)GlcNAc(b1-3)Gal(b1-4)GlcNAc(b1-2)[GlcNAc(b1-3)Gal(b1-4)GlcNAc(b1-3)Gal(b1-4)GlcNAc(b1-3)Gal(b1-4)GlcNAc(b1-6)]Man(a1-6)[GlcNAc(b1-3)Gal(b1-4)GlcNAc(b1-3)Gal(b1-4)GlcNAc(b1-3)Gal(b1-4)GlcNAc(b1-2)Man(a1-3)]Man(b1-4)GlcNAc(b1-4)[Fuc(a1-6)]GlcNAc
How it was run: as §1

[7] = molecular target: GlcNAc(b1-3)Gal(b1-4)GlcNAc(b1-3)Gal(b1-4)GlcNAc(b1-3)Gal(b1-4)GlcNAc(b1-3)Gal(b1-4)GlcNAc(b1-2)Man(a1-3)[GlcNAc(b1-3)Gal(b1-4)GlcNAc(b1-3)Gal(b1-4)GlcNAc(b1-3)Gal(b1-4)GlcNAc(b1-3)Gal(b1-4)GlcNAc(b1-2)Man(a1-6)]Man(b1-4)GlcNAc(b1-4)GlcNAc
How it was run: as §1

[8] = molecular target: GlcNAc(b1-3)Gal(b1-4)GlcNAc(b1-3)Gal(b1-4)GlcNAc(b1-3)Gal(b1-4)GlcNAc(b1-3)Gal(b1-4)GlcNAc(b1-2)Man(a1-3)[GlcNAc(b1-3)Gal(b1-4)GlcNAc(b1-3)Gal(b1-4)GlcNAc(b1-3)Gal(b1-4)GlcNAc(b1-3)Gal(b1-4)GlcNAc(b1-2)Man(a1-6)]Man(b1-4)GlcNAc(b1-4)[Fuc(a1-6)]GlcNAc
How it was run: as §1

[9] = molecular target: GlcNAc(b1-3)Gal(b1-4)GlcNAc(b1-3)Gal(b1-4)GlcNAc(b1-3)Gal(b1-4)GlcNAc(b1-3)Gal(b1-4)GlcNAc(b1-2)[GlcNAc(b1-3)Gal(b1-4)GlcNAc(b1-3)Gal(b1-4)GlcNAc(b1-3)Gal(b1-4)GlcNAc(b1-3)Gal(b1-4)GlcNAc(b1-6)]Man(a1-6)[GlcNAc(b1-3)Gal(b1-4)GlcNAc(b1-3)Gal(b1-4)GlcNAc(b1-3)Gal(b1-4)GlcNAc(b1-3)Gal(b1-4)GlcNAc(b1-2)Man(a1-3)]Man(b1-4)GlcNAc(b1-4)[Fuc(a1-6)]GlcNAc
How it was run: as §1

[10] = molecular target: GlcNAc(b1-3)Gal(b1-4)GlcNAc(b1-3)Gal(b1-4)GlcNAc(b1-3)GalNAc
How it was run: as §1

[11] = molecular target: GlcNAc(b1-3)Gal(b1-4)GlcNAc(b1-3)GalNAc
How it was run: as §1

[12] = molecular target: GlcNAc(b1-3)Gal(b1-4)GlcNAc(b1-3)[GlcNAc(b1-3)Gal(b1-4)GlcNAc(b1-3)]GalNAc
How it was run: as §1

[13] = molecular target: GlcNAc(b1-3)Gal(b1-4)GlcNAc(b1-6)[Gal(b1-3)]GalNAc
How it was run: as §1

[14] = molecular target: GlcNAc(b1-3)Gal(b1-4)GlcNAc(b1-6)[GlcNAc(b1-3)Gal(b1-3)]GalNAc
How it was run: as §1

[15] = molecular target: GlcNAc(b1-3)Gal(b1-4)GlcNAc(b1-6)[GlcNAc(b1-3)]Gal(b1-4)GlcNAc
How it was run: as §1

GlcNAc(b1-3)GalNAc = molecular target: GlcNAc(b1-3)GalNAc
How it was run: as §1

GlcNAc(b1-3)Man = molecular target: GlcNAc(b1-3)Man
How it was run: as §1

[16] = molecular target: GlcNAc(b1-3)[GlcNAc(b1-4)][GlcNAc(b1-6)]GlcNAc
How it was run: as §1

[17] = molecular target: GlcNAc(b1-3)[GlcNAc(b1-6)]Gal(b1-4)GlcNAc
How it was run: as §1

[18] = molecular target: GlcNAc(b1-3)[GlcNAc(b1-6)]GalNAc
How it was run: as §1

[19] = molecular target: GlcNAc(b1-3)[GlcNAc(b1-6)]GlcNAc
How it was run: as §1

[20] = molecular target: GlcNAc(b1-4)Gal(b1-4)GlcNAc
How it was run: as §1

GlcNAc(b1-4)GlcNAc = molecular target: GlcNAc(b1-4)GlcNAc
How it was run: as §1

[21] = molecular target: GlcNAc(b1-4)GlcNAc(b1-4)GlcNAc
How it was run: as §1

[22] = molecular target: GlcNAc(b1-4)GlcNAc(b1-4)GlcNAc(b1-4)GlcNAc(b1-4)GlcNAc
How it was run: as §1

[23] = molecular target: GlcNAc(b1-4)GlcNAc(b1-4)GlcNAc(b1-4)GlcNAc(b1-4)GlcNAc(b1-4)GlcNAc
How it was run: as §1

[24] = molecular target: GlcNAc(b1-4)[GlcNAc(b1-6)]GalNAc
How it was run: as §1

[25] = molecular target: GlcNAc(b1-6)Gal(b1-4)GlcNAc
How it was run: as §1

GlcNAc(b1-6)GalNAc = molecular target: GlcNAc(b1-6)GalNAc
How it was run: as §1

GlcNAc3Prop(b1-4)GlcNAc = molecular target: GlcNAc3Prop(b1-4)GlcNAc
How it was run: as §1

B1: Epa1-NP (Candida glabrata), Q6VBJ0 (protein)
chain: MILNPALFLNKCVCIYTTLILLLLTNGGYATSSNDISLASKDPTTFPLGCSPDITTPKKGLSMELYSYDFRKKGSYPCWDAAYLDPNYPRTGYKSHRLLAKVDGVTGNINFYYHATKGCTPQLGHLPASYNYPKPLTMTNFTMLLYGYFRPKVTGFHTFTISADDLLFVNFGAGNAFDCCRRDSSADHFGNYQAYAIWGSKTAKDELTVHLDAGVYYPIRLFYNNREYDGALSFTFKTESNENTVSDFSEYFFSLDDTEEGCPGLISYDSSCASVKTSKIIGIDYHTETPNENLVPITKTIYHLGIPCTGTTTTPLCGSGFYDPLANKCVTINTSSTSSVTKTTSHTTSKEVSFHSSISSQKTLIPKSIPSPYGPIKSQSIPTEMETSSEISSSEYAFSDVISTPSHSPYTKKHSSLNSSSYTSTVIHSLTSYSISQGIFSTSLSEQNITSKSSTDKFSTATSMSNNITQSSIIISQFSTNNENYTTTSMHTSSDKISTETLNNSISTTTSILFSNSSTILKNNTTIISSDKDTHYHPVNPTIVCSTNKTEIICASITQPSISNSNNHWSSSVLKFNSTTVRSTLPSSAGSNETSINVPFSSSTESNTSTSSTSTSNSKMVRSTLPSSAGSNETSISVPFSSSTESNTSTSSTSTSNSKMVRSTLPSSAGSNETSINVPFSSSTESNTSTSSTSTSNSKTVRSTPFSSAGIIMTSLSQRNNKSASSYASSNSKCYNTADSCRKVHSTPSYLLTSSYTSEGVDYDCSLVSTKLKINDTNCVNNKHTTKSCLKTSVTTTIPTLEIKTARKSSSNTIGLHSYPTSSPNKSISSAPIIGYISSFKTIKTASPSYQTSDLTTITTITSLNNPGSTAVENTHESNDKSRKTSSNDISSKHSVIKETKDAVESSNKSHQTNTLKCSSIIIASSSHNSYESLGGTTLTLTLSKVYSPQNNDTLPFLEISEVNPSRTVLPESSKMMQYLTSTEERNKTARNTIATNIVSISTFHFEGEGNAIRMGYTQLLLMLIGIIVMNIGT
- glycan array binding signal (z-score) [1]: -0.273
- glycan array binding signal (z-score) [2]: -0.277
- glycan array binding signal (z-score) [3]: -0.27
- glycan array binding signal (z-score) [4]: -0.281
- glycan array binding signal (z-score) [5]: -0.279
- glycan array binding signal (z-score) [6]: -0.275
- glycan array binding signal (z-score) [7]: -0.277
- glycan array binding signal (z-score) [8]: -0.267
- glycan array binding signal (z-score) [9]: -0.281
- glycan array binding signal (z-score) [10]: -0.284
- glycan array binding signal (z-score) [11]: -0.287
- glycan array binding signal (z-score) [12]: -0.287
- glycan array binding signal (z-score) [13]: 1.14
- glycan array binding signal (z-score) [14]: -0.288
- glycan array binding signal (z-score) [15]: -0.291
- glycan array binding signal (z-score) (GlcNAc(b1-3)GalNAc): -0.313
- glycan array binding signal (z-score) (GlcNAc(b1-3)Man): -0.296
- glycan array binding signal (z-score) [16]: -0.341
- glycan array binding signal (z-score) [17]: -0.331
- glycan array binding signal (z-score) [18]: -0.284
- glycan array binding signal (z-score) [19]: -0.555
- glycan array binding signal (z-score) [20]: -0.315
- glycan array binding signal (z-score) (GlcNAc(b1-4)GlcNAc): -0.276
- glycan array binding signal (z-score) [21]: -0.346
- glycan array binding signal (z-score) [22]: -0.331
- glycan array binding signal (z-score) [23]: -0.319
- glycan array binding signal (z-score) [24]: -0.319
- glycan array binding signal (z-score) [25]: 1.39
- glycan array binding signal (z-score) (GlcNAc(b1-6)GalNAc): -0.314
- glycan array binding signal (z-score) (GlcNAc3Prop(b1-4)GlcNAc): -0.239

From the supplement of paper PMC8728848
